Data published in patent publication US20240245811A1, “ALPHA RA[…] ANALOGUE AND USE THEREOF IN METHODS OF TREATING CCKB RECEPTOR POSITIVE DISEASES” (Paul Scherrer Institut, priority 2020, published 2024).
Not every detail of the peptide structures is certain; ends, links or a residue may be inferred.

Assays:
CCKBR = biological target: T1, CCKBR (Homo sapiens, UniProt P32239); assay: In vitro radiolabelled peptide internalization assay; format: cell-based; parameters: expressed in transfected cells; details: A431/CCKBR cells
T1 sequence (P32239 1-447): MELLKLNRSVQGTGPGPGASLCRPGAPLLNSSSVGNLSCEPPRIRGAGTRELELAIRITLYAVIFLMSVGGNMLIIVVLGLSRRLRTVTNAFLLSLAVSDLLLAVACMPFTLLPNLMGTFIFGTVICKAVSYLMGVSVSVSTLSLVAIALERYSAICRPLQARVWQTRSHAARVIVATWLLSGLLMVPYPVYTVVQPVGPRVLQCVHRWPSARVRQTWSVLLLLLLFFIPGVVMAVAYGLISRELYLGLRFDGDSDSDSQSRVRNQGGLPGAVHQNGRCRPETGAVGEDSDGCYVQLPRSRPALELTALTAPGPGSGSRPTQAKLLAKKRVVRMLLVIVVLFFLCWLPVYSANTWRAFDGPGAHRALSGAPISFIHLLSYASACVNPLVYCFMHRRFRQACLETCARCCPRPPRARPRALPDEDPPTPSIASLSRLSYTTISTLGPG

A431/CCKBR tumors [1] = assay: SPECT/CT imaging with 111In-PP-F11N after 225Ac-PP-F11N treatment; format: in vivo, nude mice; details: tumor-free mice from 45 kBq and 60 kBq treatment groups
Procedure: For the SPECT/CT experiments, radiolabeled ^111In-PP-F11N is purified by HPLC, concentrated on SpeedVac, diluted to 13 MBq per 100 μL of PBS and intravenously injected into nude mice (13 MBq/100 μL per mouse). […] All mice are sacrificed 2 h after injections and used directly for 7.5 min CT followed by a 45 min SPECT scan. Image reconstruction and processing is accomplished by using VivoQuant 3.0 Patch1 software.

A431/CCKBR cells = assay: Cell proliferation assay (CellTiter 96 AQueous); format: cell-based, human; details: 2 h incubation, read at 24 h after treatment
Procedure: Human epidermoid carcinoma A431 stable cell line that overexpress CCKBR, generated as previously described (Aloj et al., J Nucl Med 2004, 45(3), 485-94) can be cultured in DMEM, supplemented with 10% FBS (Bio Concept, Switzerland), 2 mM glutamine and antibiotics (0.1 mg/mL streptomycin, 100 IU penicillin) at 37° C. in a humidified incubator containing 5% CO2.
For the cell proliferation assay, 4×10^3 cells per well are seeded on the 96-well plates.
Cell proliferation can be analyzed using CellTiter 96 AQueous Non-Radioactive Cell Proliferation Kit (Promega AG, Switzerland) according to the manufacturer's instruction. Absorbance of formazan product is measured at 570 nm with a reference of 650 nm using a MicroPlate Reader (PerkinElmer, Switzerland). The absorbance of the control (untreated) cells is set as 100% cell viability. […] The assay is performed in triplicate.

A431/CCKBR tumors [2] = assay: Therapy study in A431/CCKBR tumor-bearing nude mice; format: in vivo
Procedure: For the therapy study, nude mice are subcutaneously injected with 5×10^6 A431/CCKBR cells on the left shoulder. […] The control group is injected with 100 μL PBS. Tumor diameters and mice weight are recorded daily during the working days. Tumor volume is calculated by using the formula formula V=(W^2×L)/2 (Faustino-Rocha et al. Lab Anim. 2013, 42(6), 217-224). Nude mice are sacrificed when the tumor volume exceeded 1.5 cm^3. The data are obtained from two sets of experiments including control, 30, 45, 60 kBq and control, 60, 90, 120 kBq treatment groups.
GraphPad Prism 7.00 for Windows was used for all statistical analysis. […] Log-rank (Mantel-Cox) test and Gehan-Breslow-Wilcoxon test are performed to compare different survival curves of treatment groups with the control group. Endpoints are defined as death in survival curves. Values of P<0.05 are considered statistically significant. The results are reported as mean±standard deviation of at least three independent replicates.

In the case of `CCCC[C@H](NC(=O)[C@H](Cc1c[nH]c2ccccc12)NC(=O)CNC(=O)[C@H](Cc1ccc(O)cc1)NC(=O)[C@H](C)NC(=O)[C@@H](CCC(=O)O)NC(=O)[C@@H](CCC(=O)O)NC(=O)[C@@H](CCC(=O)O)NC(=O)[C@@H](CCC(=O)O)NC(=O)[C@@H](CCC(=O)O)NC(=O)[C@@H](CCC(=O)O)NC(=O)CN1CCN(CC(=O)O)CCN(CC(=O)O)CCN(CC(=O)O)CC1)C(=O)N[C@@H](CC(=O)O)C(=O)N[C@@H](Cc1ccccc1)C(N)=O` [^225Ac-PP-F11N, metal not drawn], the “internalization rate in presence of blocking peptide” value (CCKBR; 2 h, blocking peptide LEEEEEAYGWMDF (4 μM)) is reported as 1.4%, the membrane-bound activity (CCKBR; 2 h incubation) is reported as 1 % of total activity and the internalization rate (CCKBR; 2 h incubation, blocking-peptide values subtracted) is reported as 45 % of total activity. For the same molecule, the “tumors on SPECT/CT after treatment” value (A431/CCKBR tumors [1]) was “no detectable tumors”, the “EA50 (half-maximal effective activity level in cell-killing)” value (A431/CCKBR cells) was 6.2±1.1 kBq/mL and the life-span (A431/CCKBR tumors [2]; 30, 45, 60, 90 and 120 kBq) was “increased life-span in a dose dependent manner”. The tumor growth (A431/CCKBR tumors [2]; 30, 45, 60, 90 and 120 kBq) was “significantly inhibited tumor growth in a dose dependent manner”, the Mean survival (A431/CCKBR tumors [2]; 30 kBq (control 17 days)) was 22 days and the “day on which first tumor exceeded 1.5 cm^3” value (from here on “day”) (A431/CCKBR tumors [2]; 30 kBq (control day 11)) was 12 days. The Mean survival (A431/CCKBR tumors [2]; 45 kBq (control 17 days)) was 27 days, the “day” value (A431/CCKBR tumors [2]; 45 kBq (control day 11)) was 13 days and the Mean survival (A431/CCKBR tumors [2]; 60 kBq (control 17 days)) was 34 days. For the same molecule, the “day” value (A431/CCKBR tumors [2]; 60 kBq (control day 11)) was 21 days, the Mean survival (A431/CCKBR tumors [2]; 90 kBq (control 17 days)) was 44 days and the “day” value (A431/CCKBR tumors [2]; 90 kBq (control day 11)) was 33 days. For the same molecule, the Mean survival (A431/CCKBR tumors [2]; 120 kBq (control 17 days)) was 58 days, the “day” value (A431/CCKBR tumors [2]; 120 kBq (control day 11)) was 44 days and the average tumor volume (A431/CCKBR tumors [2]; day 11, 30 kBq (control 0.78)) was 0.54 cm^3. It also gave an average tumor volume (A431/CCKBR tumors [2]; day 11, 45 kBq (control 0.78)) of 0.31 cm^3, an average tumor volume (A431/CCKBR tumors [2]; day 11, 60 kBq (control 0.78)) of 0.12 cm^3 and an average tumor volume (A431/CCKBR tumors [2]; day 11, 90 kBq (control 0.78)) of 0.11 cm^3. The average tumor volume (A431/CCKBR tumors [2]; day 11, 120 kBq (control 0.78)) was 0.07 cm^3.
